From PMC9911399, “Two distinct binding modes provide the RNA-binding protein RbFox with extraordinary sequence specificity”
Substitutions are numbered along the chain they refer to; changes in the protein carry UniProt numbers. The list shows a part of the results.

T1: RBFOX1 RRM RbFoxmut (Fox-RRM*) (Homo sapiens, UniProt Q9NWB1 109-208, R118D;E147R;N151S;E152T)
T1 sequence: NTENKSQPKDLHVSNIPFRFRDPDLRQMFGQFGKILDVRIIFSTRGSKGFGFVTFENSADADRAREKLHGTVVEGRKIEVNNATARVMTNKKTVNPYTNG

B1: AGCGAAU (DNA:RNA)
RNA: GGGAGACCGGAAUUCAGAUUGUCCAGCGAAUUUAAAUCCCGUCGUAGCCACCA
DNA 1: CAATCTGAATTCCGGTCTCCC
DNA 2: TGGTGGCTACGACGGGATT
B2: CUCUGGU (DNA:RNA)
RNA: B1 RNA with A25C, G26U, G28U, A29G, A30G
DNA 1: CAATCTGAATTCCGGTCTCCC
DNA 2: TGGTGGCTACGACGGGATT
B3: CUCUGCG (DNA:RNA)
RNA: B1 RNA with A25C, G26U, G28U, A29G, A30C, U31G
DNA 1: CAATCTGAATTCCGGTCTCCC
DNA 2: TGGTGGCTACGACGGGATT
B4: CAAGUCA (DNA:RNA)
RNA: B1 RNA with A25C, G26A, C27A, A29U, A30C, U31A
DNA 1: CAATCTGAATTCCGGTCTCCC
DNA 2: TGGTGGCTACGACGGGATT
B5: GCUGUGA (DNA:RNA)
RNA: B1 RNA with A25G, G26C, C27U, A29U, A30G, U31A
DNA 1: CAATCTGAATTCCGGTCTCCC
DNA 2: TGGTGGCTACGACGGGATT
B6: UCUUCUA (DNA:RNA)
RNA: GGGAGACCGGAAUUCAGAUUGUCCUCUUCUAUUAAAUCCCGUCGUAGCCACCA
DNA 1: CAATCTGAATTCCGGTCTCCC
DNA 2: TGGTGGCTACGACGGGATT
B7: GUUAUGG (DNA:RNA)
RNA: B6 RNA with U25G, C26U, U28A, C29U, U30G, A31G
DNA 1: CAATCTGAATTCCGGTCTCCC
DNA 2: TGGTGGCTACGACGGGATT
B8: CUUUGAC (DNA:RNA)
RNA: B6 RNA with U25C, C26U, C29G, U30A, A31C
DNA 1: CAATCTGAATTCCGGTCTCCC
DNA 2: TGGTGGCTACGACGGGATT
B9: GCUAACC (DNA:RNA)
RNA: B6 RNA with U25G, U28A, C29A, U30C, A31C
DNA 1: CAATCTGAATTCCGGTCTCCC
DNA 2: TGGTGGCTACGACGGGATT
B10: GUAUAAC (DNA:RNA)
RNA: B1 RNA with A25G, G26U, C27A, G28U, U31C
DNA 1: CAATCTGAATTCCGGTCTCCC
DNA 2: TGGTGGCTACGACGGGATT
B11: UGACCAC (DNA:RNA)
RNA: B1 RNA with A25U, C27A, G28C, A29C, U31C
DNA 1: CAATCTGAATTCCGGTCTCCC
DNA 2: TGGTGGCTACGACGGGATT
B12: UACAGCU (DNA:RNA)
RNA: B1 RNA with A25U, G26A, G28A, A29G, A30C
DNA 1: CAATCTGAATTCCGGTCTCCC
DNA 2: TGGTGGCTACGACGGGATT
B13: GGGCGAG (DNA:RNA)
RNA: B1 RNA with A25G, C27G, G28C, A29G, U31G
DNA 1: CAATCTGAATTCCGGTCTCCC
DNA 2: TGGTGGCTACGACGGGATT
B14: CUUUUAU (DNA:RNA)
RNA: B1 RNA with A25C, G26U, C27U, G28U, A29U
DNA 1: CAATCTGAATTCCGGTCTCCC
DNA 2: TGGTGGCTACGACGGGATT
B15: CCUAAGC (DNA:RNA)
RNA: B6 RNA with U25C, U28A, C29A, U30G, A31C
DNA 1: CAATCTGAATTCCGGTCTCCC
DNA 2: TGGTGGCTACGACGGGATT
B16: AACUAGU (DNA:RNA)
RNA: B1 RNA with G26A, G28U, A30G
DNA 1: CAATCTGAATTCCGGTCTCCC
DNA 2: TGGTGGCTACGACGGGATT
B17: GUGACCG (DNA:RNA)
RNA: B6 RNA with U25G, C26U, U27G, U28A, U30C, A31G
DNA 1: CAATCTGAATTCCGGTCTCCC
DNA 2: TGGTGGCTACGACGGGATT
B18: AUUUUCU (DNA:RNA)
RNA: B1 RNA with G26U, C27U, G28U, A29U, A30C
DNA 1: CAATCTGAATTCCGGTCTCCC
DNA 2: TGGTGGCTACGACGGGATT
B19: CCGCUGG (DNA:RNA)
RNA: B6 RNA with U25C, U27G, U28C, C29U, U30G, A31G
DNA 1: CAATCTGAATTCCGGTCTCCC
DNA 2: TGGTGGCTACGACGGGATT
B20: UAGAGUU (DNA:RNA)
RNA: B6 RNA with C26A, U27G, U28A, C29G, A31U
DNA 1: CAATCTGAATTCCGGTCTCCC
DNA 2: TGGTGGCTACGACGGGATT
B21: ACCGAUA (DNA:RNA)
RNA: B1 RNA with G26C, A30U, U31A
DNA 1: CAATCTGAATTCCGGTCTCCC
DNA 2: TGGTGGCTACGACGGGATT
B22: AGCUGCU (DNA:RNA)
RNA: B1 RNA with G28U, A29G, A30C
DNA 1: CAATCTGAATTCCGGTCTCCC
DNA 2: TGGTGGCTACGACGGGATT
B23: AUCAAUA (DNA:RNA)
RNA: B1 RNA with G26U, G28A, A30U, U31A
DNA 1: CAATCTGAATTCCGGTCTCCC
DNA 2: TGGTGGCTACGACGGGATT
B24: ACCAUGA (DNA:RNA)
RNA: B1 RNA with G26C, G28A, A29U, A30G, U31A
DNA 1: CAATCTGAATTCCGGTCTCCC
DNA 2: TGGTGGCTACGACGGGATT
B25: UCGGCUG (DNA:RNA)
RNA: B6 RNA with U27G, U28G, A31G
DNA 1: CAATCTGAATTCCGGTCTCCC
DNA 2: TGGTGGCTACGACGGGATT
B26: ACGGGCC (DNA:RNA)
RNA: B1 RNA with G26C, C27G, A29G, A30C, U31C
DNA 1: CAATCTGAATTCCGGTCTCCC
DNA 2: TGGTGGCTACGACGGGATT
B27: AAUACCG (DNA:RNA)
RNA: B6 RNA with U25A, C26A, U28A, U30C, A31G
DNA 1: CAATCTGAATTCCGGTCTCCC
DNA 2: TGGTGGCTACGACGGGATT
B28: CCACAGU (DNA:RNA)
RNA: B1 RNA with A25C, G26C, C27A, G28C, A30G
DNA 1: CAATCTGAATTCCGGTCTCCC
DNA 2: TGGTGGCTACGACGGGATT
B29: CAGUAGC (DNA:RNA)
RNA: B1 RNA with A25C, G26A, C27G, G28U, A30G, U31C
DNA 1: CAATCTGAATTCCGGTCTCCC
DNA 2: TGGTGGCTACGACGGGATT
B30: UAAGCAC (DNA:RNA)
RNA: B1 RNA with A25U, G26A, C27A, A29C, U31C
DNA 1: CAATCTGAATTCCGGTCTCCC
DNA 2: TGGTGGCTACGACGGGATT
B31: CGUCCCA (DNA:RNA)
RNA: B6 RNA with U25C, C26G, U28C, U30C
DNA 1: CAATCTGAATTCCGGTCTCCC
DNA 2: TGGTGGCTACGACGGGATT

What follows are binders tested against T1, RBFOX1 RRM RbFoxmut (Fox-RRM*) (assay: EMSA; HiTS-Eq, 1 nM pool, 10 min; buffer printed only for the single-RNA assays: 10 mM Tris pH 7.5, 150 mM NaCl, 3.4 mM EDTA, 0.001% NP-40, 30 C). Conditions: tags: His6 N-terminal (pET28a); label: 5' 32P.
How it was run: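 These values rest on relative association constants, computed from read-count changes of each RNA species versus the control reaction and normalised to the cognate motif. Reads came from free RNA recovered by 8% native PAGE after purified RbFox RRM (wild type or mutant) at increasing concentrations was equilibrated for 10 min in 50 µL with 1 nM of a 5′-radiolabelled pool with 7 randomized nucleotides and DNA-annealed flanks.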

| Binder | binding signal |
| --- | --- |
| B1 | 0.124 KA relative to UGCAUGU |
| B2 | 0.088 KA relative to UGCAUGU |
| B3 | 0.121 KA relative to UGCAUGU |
| B4 | 0.0876 KA relative to UGCAUGU |
| B5 | 0.117 KA relative to UGCAUGU |
| B6 | 0.0886 KA relative to UGCAUGU |
| B7 | 0.123 KA relative to UGCAUGU |
| B8 | 0.1 KA relative to UGCAUGU |
| B9 | 0.0517 KA relative to UGCAUGU |
| B10 | 0.125 KA relative to UGCAUGU |
| B11 | 0.0616 KA relative to UGCAUGU |
| B12 | 0.056 KA relative to UGCAUGU |
| B13 | 0.126 KA relative to UGCAUGU |
| B14 | 0.13 KA relative to UGCAUGU |
| B15 | 0.0811 KA relative to UGCAUGU |
| B16 | 0.108 KA relative to UGCAUGU |

| Binder | binding signal |
| --- | --- |
| B17 | 0.162 KA relative to UGCAUGU |
| B18 | 0.0686 KA relative to UGCAUGU |
| B19 | 0.105 KA relative to UGCAUGU |
| B20 | 0.109 KA relative to UGCAUGU |
| B21 | 0.0715 KA relative to UGCAUGU |
| B22 | 0.107 KA relative to UGCAUGU |
| B23 | 0.0978 KA relative to UGCAUGU |
| B24 | 0.076 KA relative to UGCAUGU |
| B25 | 0.226 KA relative to UGCAUGU |
| B26 | 0.192 KA relative to UGCAUGU |
| B27 | 0.0781 KA relative to UGCAUGU |
| B28 | 0.0857 KA relative to UGCAUGU |
| B29 | 0.103 KA relative to UGCAUGU |
| B30 | 0.0696 KA relative to UGCAUGU |
| B31 | 0.0413 KA relative to UGCAUGU |
